# Results taken from publication PMC4336329 (PLoS ONE, 2015).
# Hit rate of the full screen: of about 310,000 compounds, about 14,000 (4.5%) showed an effect of 50% or more. The effect is printed as a negative number. The list shows a part of the results.
# Target: human ether-à-go-go-related gene (hERG) potassium channel (human, UniProt Q12809)
# Assay: primary screen, population patch clamp on CHO cells stably expressing hERG
# 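Further: peak tail current of the secondary pulse compared with the same well before compound.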
# human ether-à-go-go-related gene (hERG) potassium channel, sequence (Q12809 whole entry, looked up): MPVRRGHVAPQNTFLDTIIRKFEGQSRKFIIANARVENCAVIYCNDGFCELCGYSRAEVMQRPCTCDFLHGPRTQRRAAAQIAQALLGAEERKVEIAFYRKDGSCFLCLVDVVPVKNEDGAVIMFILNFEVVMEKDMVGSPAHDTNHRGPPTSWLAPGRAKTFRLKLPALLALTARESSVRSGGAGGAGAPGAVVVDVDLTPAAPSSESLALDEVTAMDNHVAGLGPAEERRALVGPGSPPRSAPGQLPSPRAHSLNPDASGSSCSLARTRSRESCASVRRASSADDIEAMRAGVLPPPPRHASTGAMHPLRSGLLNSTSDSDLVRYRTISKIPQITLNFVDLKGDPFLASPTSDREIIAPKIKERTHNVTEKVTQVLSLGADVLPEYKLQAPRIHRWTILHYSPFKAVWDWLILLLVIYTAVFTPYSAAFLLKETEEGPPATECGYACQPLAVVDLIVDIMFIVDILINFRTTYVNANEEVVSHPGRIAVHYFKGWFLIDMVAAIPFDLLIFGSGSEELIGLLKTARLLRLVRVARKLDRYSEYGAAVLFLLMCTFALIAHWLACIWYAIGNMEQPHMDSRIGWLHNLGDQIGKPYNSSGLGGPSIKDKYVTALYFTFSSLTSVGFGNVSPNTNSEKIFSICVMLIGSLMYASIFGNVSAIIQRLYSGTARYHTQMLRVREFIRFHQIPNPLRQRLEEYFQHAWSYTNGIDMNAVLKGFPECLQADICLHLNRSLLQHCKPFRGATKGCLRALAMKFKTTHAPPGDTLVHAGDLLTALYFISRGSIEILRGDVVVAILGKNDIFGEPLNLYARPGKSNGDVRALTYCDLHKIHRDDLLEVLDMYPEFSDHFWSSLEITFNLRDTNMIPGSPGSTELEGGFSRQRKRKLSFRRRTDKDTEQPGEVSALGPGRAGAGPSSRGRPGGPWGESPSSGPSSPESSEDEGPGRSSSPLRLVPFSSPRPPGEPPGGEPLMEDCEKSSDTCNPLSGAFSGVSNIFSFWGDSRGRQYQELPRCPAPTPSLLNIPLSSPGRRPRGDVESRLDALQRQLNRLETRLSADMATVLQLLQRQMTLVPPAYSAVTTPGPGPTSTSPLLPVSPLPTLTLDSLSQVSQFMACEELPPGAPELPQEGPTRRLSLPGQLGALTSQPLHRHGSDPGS
row,Structure (SMILES),"hERG current change (%, negative = inhibition) at 10uM"
1,O=C(NC(=S)NCc1cccnc1)c1ccc([N+](=O)[O-])cc1,-48.3%
2,COc1cc(C2NC(=O)NC(C)=C2C(=O)OC(C)(C)C)ccc1OCC(N)=O (stereo not shown),9.28%
3,O=C(CNC(=O)Cc1ccccc1)N=Nc1c(O)[nH]c2ccccc12,2.61%
4,CCOC(=O)N1CCN(C(=O)c2cn(CC)c3cc(N4CCN(C)CC4)c(F)cc3c2=O)CC1.Cl,12.6%
5,O=C(O)c1c(C(=O)O)c(-c2ccc(F)cc2)n2c1CCC2,1.97%
6,CS(=O)(=O)Nc1ccc(C2=NN(C(=O)c3ccco3)C(c3ccccc3F)C2)cc1 (stereo not shown),-78.2%
7,O=C(CNCCc1ccc(F)cc1)Nc1cc(F)ccc1F.O=C(O)C(=O)O,-19.9%
8,Cc1ccc2c(c1)C(=NC1CCCCC1)c1cc3ccccc3nc1-2,10.1%
9,O=S1(=O)CC2N=C(N(Cc3ccc(F)cc3Cl)c3ccccc3F)SC2C1 (stereo not shown),6.43%
10,O=S(=O)(c1cccc(S(=O)(=O)N2CCCC2)c1)N1CCCCC1,-22.2%
11,Nc1ccc(S(=O)(=O)NC2(C(F)(F)F)NC(=O)N(c3ccccc3Cl)C2=O)cc1 (stereo not shown),1.42%
12,Cc1cc(NC(=O)CSCC(=O)N(c2cccc(Cl)c2)C(C(=O)NC2CCCCC2)c2ccc(O)c(O)c2)no1 (stereo not shown),2.39%
13,COc1cc2c(cc1OC)C(C(=O)Nc1ccccc1N1CCN(C)CC1)C1c3ccccc3CCN1C2=O (stereo not shown),-26.7%
14,COc1ccc(S(=O)(=O)Nc2ccccc2OC)cc1C,-2.75%
15,CCN(CCS(=O)(=O)c1ccc(Cl)cc1)C(=O)Nc1ccccc1,5.64%
16,O=C(Nc1ccc(Cl)cc1)c1csc(-c2ccccc2)n1,6.24%
17,O=C1C(C=NCCCn2ccnc2)=C(O)c2ccccc21,-8.86%
18,O=C(CCc1nnc(C2CCCCC2)o1)N1CCCCC1CCn1cccn1 (stereo not shown),3.65%
19,Cc1ccccc1C(=O)Nc1cccc(-c2ccc(N3CCOCC3)nn2)c1,-3.56%
20,CN(C)CCNC(=O)Cn1ccc2cc(S(=O)(=O)N3CCCCC3)ccc21,8.47%
21,COc1ccc(NC(=O)c2cc(S(=O)(=O)N3CCCCC3)c[nH]2)c(OC)c1,-11.7%
22,Cc1c(N(C(=O)CNC(=O)c2ccccc2)C2(C(=O)NC3CCCCC3)CCCCC2)c(=O)n(-c2ccccc2)n1C,-0.641%
23,CC(=O)/C=C(/C)NC(Cc1c[nH]c2ccccc12)C(=O)O (stereo not shown) [14727836],0.628%
24,CCCc1c(C)c2ccccc2[nH]c1=O,6.28%
25,COc1ccc(-n2c(N)c(C#N)c3ccc([N+](=O)[O-])cc3c2=O)cc1,-2.75%
26,O=P(O)(CCCP(=O)(O)CCc1ccccc1)CCc1ccccc1,-1.56%
27,C[C@]12CC[C@H]3[C@@H](CCC4=CC(=O)CC[C@@]43C)[C@@H]1CC[C@@H]2C(=O)CO,-10%
28,CCN(CC(=O)Nc1c(F)cccc1F)C(=O)CCCOc1ccc(OC)cc1,-7.58%

row,Structure (SMILES),"hERG current change (%, negative = inhibition) at 10uM"
1,CCC(=O)Nc1nnc(-c2ccccn2)o1,12.7%
2,CCN(CC)C(=S)SCC(=O)Nc1nc(-c2ccccc2)c(-c2ccccc2)o1,15.6%
3,NCCCC[C@H]1CNC(=O)C(=O)N1CCc1cc(C(F)(F)F)cc(C(F)(F)F)c1,15.8%
4,Cc1ccc(-c2nc(N)sc2CC(=O)OCC(=O)NCC2CCCO2)cc1 (stereo not shown),0.809%
5,N#C/C(=C\c1ccccc1Cl)C(=O)Nc1ccccn1,12.9%
6,Cc1ccc(-n2ncc3c(NCCCN4CCCC4=O)ncnc32)c(C)c1,13.2%
7,CCC(C)NC(=O)Nc1ccc(Br)cc1Cl (stereo not shown),15.8%
8,C[C@@H](NC(=O)[C@@H]1Cc2ccccc2CN1)C(=O)Nc1ccc2c(c1)OCCO2,3.19%
9,COc1cccc(-c2noc(CCC(=O)NC3CCCC3)n2)c1,7.42%
10,Nc1nc(OCC(F)(F)F)cc(Oc2ccccc2F)n1,-8.12%
11,c1ccc(Cn2cc(CNc3ccccc3)nn2)cc1,9.73%
12,COC(=O)[C@H]1[C@H](c2ccccc2)[C@H](C(=O)OC)O[C@H]1c1ccccc1,3.18%
13,CCCCNC(=O)CSc1nc2ccccc2c(=O)n1Cc1ccc2c(c1)OCO2,4.77%
14,CC(C)n1nnnc1SCC(=O)Nc1ccc2c(c1)OCO2,-4.66%
15,COc1ccccc1C(=O)NCCC(=O)N1CCCCC1,20.7%
16,CCOC(=O)C1CCN(S(=O)(=O)c2ccc(Cl)nc2)CC1,-2.6%
17,COCCC(=O)N1CCC(Oc2ccc(C(=O)NCc3ccon3)cc2)CC1,3.38%
18,O=C(C(=O)N1CCc2ccccc2C1)c1cn(CC(=O)N2CCCCC2)c2ccccc12,-14.6%
19,O=C(/C=C/c1ccco1)NC(=S)Nc1nc(-c2ccc3ccccc3c2)cs1,1.82%
20,CCc1ccc(NC(=O)c2cc(C(C)C)on2)cc1,-27.3%
21,CN(C[C@H](Cc1ccccc1)N(C[C@@H](Cc1cccc2ccccc12)N(CCc1ccccc1)N=O)N=O)N=O.[Na+],18.9%
22,Cc1ccc(C)c(NC(=S)N2CCC(NC(=O)C3CCCCC3)CC2)c1,4.41%
23,CCCCOC(=O)CCc1nc2ccccc2[nH]1.Cl,6.35%
24,COc1cccc(-c2ncc3ccccc3c2CO)c1,7.31%
25,CC1CCC/C(=C\Nc2ccc(C(=O)O)c(O)c2)C1=O (stereo not shown),12.5%
26,COc1ccccc1N1CCN(C(CNC(=O)Oc2ccccc2)c2cccnc2)CC1 (stereo not shown),-6.19%
27,COCCCNc1cc(C)nc2ccccc12.Cl,-40.3%
